# PubChem BioAssay AID488969 (Vanderbilt High Throughput Screening Facility, 2010)
# In all, about 110,000 compounds were measured (“z-score”: median about -0.1, highest 2% from about 2 on). Some of the results follow. The source made the active and inactive calls.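 How the source made its calls: active means z-score in the third read window above 3 or below -3; inactive means the rest.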
# Target: Metabotropic glutamate receptor 8 (Rattus norvegicus) (UniProt P70579)
# Assay: mGluR8 Gi/Go-coupled signaling modulation – cell-based, rat, thallium flux, HTS, primary screen (AID 488969)
# Details: HEK293 rat mGluR8, GIRK (G protein-gated inwardly rectifying potassium channel) thallium flux, FluoZin2; at 10 µM; stronger effect = higher value; submaximal glutamate (EC20) added with thallium
# UniProt P70579, sequence (P70579 whole entry, looked up): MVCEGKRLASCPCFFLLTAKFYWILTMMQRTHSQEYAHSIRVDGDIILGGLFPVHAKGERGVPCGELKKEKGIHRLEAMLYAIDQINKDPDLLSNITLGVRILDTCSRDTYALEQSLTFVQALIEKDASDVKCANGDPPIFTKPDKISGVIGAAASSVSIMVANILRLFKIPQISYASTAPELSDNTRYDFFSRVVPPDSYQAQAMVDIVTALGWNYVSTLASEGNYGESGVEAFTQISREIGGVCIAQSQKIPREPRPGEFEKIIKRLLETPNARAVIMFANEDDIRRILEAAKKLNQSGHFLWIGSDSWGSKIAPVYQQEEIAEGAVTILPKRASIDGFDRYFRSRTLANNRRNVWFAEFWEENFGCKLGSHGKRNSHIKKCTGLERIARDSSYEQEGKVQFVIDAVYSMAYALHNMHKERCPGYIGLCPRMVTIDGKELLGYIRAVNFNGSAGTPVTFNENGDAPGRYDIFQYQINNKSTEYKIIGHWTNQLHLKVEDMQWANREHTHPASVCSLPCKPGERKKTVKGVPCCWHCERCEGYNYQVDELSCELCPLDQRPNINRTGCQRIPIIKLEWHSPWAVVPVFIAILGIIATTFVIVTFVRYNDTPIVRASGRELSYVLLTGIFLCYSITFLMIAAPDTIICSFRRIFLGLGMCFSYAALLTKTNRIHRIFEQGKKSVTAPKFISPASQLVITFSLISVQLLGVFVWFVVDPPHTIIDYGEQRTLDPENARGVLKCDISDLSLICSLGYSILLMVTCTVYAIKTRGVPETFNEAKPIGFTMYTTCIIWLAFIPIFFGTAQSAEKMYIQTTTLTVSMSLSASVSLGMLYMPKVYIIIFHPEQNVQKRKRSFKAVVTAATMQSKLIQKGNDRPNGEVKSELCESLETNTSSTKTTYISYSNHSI
row,SMILES,z-score
1,O=C(O)CSc1nnc(-c2ccccc2O)n1Cc1ccccc1,0.037
2,CC(=O)c1cccc(NC(=S)NC(=O)CC(C)(C)C)c1,-0.0212
3,O=C1OCCC1Sc1nnnn1-c1ccccc1 (stereo unspecified),-0.169
4,S=C1NC2=C(CCC/C2=C\c2ccccc2)C(c2ccccc2)N1 (stereo unspecified),0.864
5,CCOC(=O)C(NC(=O)c1ccccc1)(OCC1(CC)COC1)C(F)(F)F (stereo unspecified),-0.096
6,N#Cc1cc2ccccc2nc1SCc1ccccn1,-1.05
7,COc1ccc(CCc2nc(-c3ccc(-n4cccc4)cc3)no2)cc1,-0.0163
8,Cc1noc(NS(=O)(=O)c2ccc(NC(=O)CSc3nnc4c(n3)[nH]c3ccccc34)cc2)c1C,-0.015
9,O=C(CCCN1C(=O)CCC1=O)Nc1ccccc1F,-0.0546
10,C=CCNC(=S)Nc1ccc2nsnc2c1,0.113
11,CC1=C(C(=O)Nc2ccccc2)C(c2ccccn2)n2ncnc2N1 (stereo unspecified),-0.125
12,CC(=O)Nc1ccc(OCC(O)CN2CCN(c3ccccc3Cl)CC2)cc1 (stereo unspecified),0.528
13,O=C(Oc1cccc(N2C(=O)CCC2=O)c1)C1CC(=O)N(c2ccc(Br)cc2)C1 (stereo unspecified),-2.3
14,O/N=C/c1ccccc1OCc1ccc(Cl)cc1,-0.391
15,Cc1cccc(OCc2nnc(SCc3nc4ccccc4c(=O)[nH]3)o2)c1,0.369
16,O=C(NC1CCCCC1)C(c1cccnc1)N(C(=O)c1csnn1)C1CCCC1 (stereo unspecified),-0.0934
17,COc1cccc(CN(CC(=O)NCC2CCCO2)C(=O)CNS(=O)(=O)c2ccccc2)c1 (stereo unspecified),-0.0821
18,O=C(c1cc2nc(-c3ccco3)cc(C(F)(F)F)n2n1)N1CCN(c2ccccc2)CC1,-1
19,COc1ccccc1NC(=O)N1CCCC1C(=O)NCc1ccc2c(c1)OCO2 (stereo unspecified),-0.885
20,O=C1NC(=NCc2ccccc2)S/C1=C\c1ccccc1,-0.21
21,CCOC(=O)c1ccc(NC(=O)Cn2cc3c(n2)CCC(C)C3)cc1 (stereo unspecified),-0.0526
22,COc1ccc(CNC(=O)CN(Cc2ccc(C)cc2)S(=O)(=O)c2ccc(Cl)cc2)cc1,0.0059
23,CCC(C)NS(=O)(=O)c1ccc(OCC(=O)NCc2ccc3c(c2)OCO3)cc1 (stereo unspecified),-0.682

row,SMILES,z-score
1,COc1ccc(OC)c(NC(=O)CS(=O)(=O)Cc2nc(-c3ccccc3C)oc2C)c1,-0.0629
2,Cc1ccccc1CN1C2=NCCCN2c2ccccc21,active: 3.26
3,Cc1ccc(-n2c(C)n[nH]c2=S)cc1C,-0.141
4,CCOc1ccccc1OCCOCCOc1ccccc1[N+](=O)[O-],-0.0536
5,O=[N+]([O-])c1ccc(C(=Nc2cccc3ccccc23)N2CCOCC2)cc1,-0.302
6,O=C(O)c1ccccc1C(=O)NCc1ccccc1,0.421
7,O=C(CCC(=O)Nc1cccc2ccccc12)N/N=C/c1ccco1,-0.266
8,CC1(C)CC(CC(=O)O)(c2ccc(F)cc2)CCO1 (stereo unspecified),1.92
9,CC(NC(=O)CSc1ncccn1)c1ccccc1 (stereo unspecified),-0.931
10,CCOc1ccccc1C(=O)Nc1ccc(-c2nnc(-c3ccc(C)cc3)o2)cc1,1.79
11,O=C(COC(=O)CNS(=O)(=O)c1ccc2ccccc2c1)Nc1ccccc1Sc1ccccc1,0.0539
12,COc1cccc(CNCCNC(=O)c2nonc2N)c1,-0.554
13,Nc1c(-c2ccccc2)c(CN2CCOCC2)nn1-c1ccc(F)cc1,0.285
14,Cc1cccc(NC(=S)N/N=C2\CC(C)(C)Oc3ccc(O)cc32)c1,0.0264
15,Cc1ccc(NC(=O)C2C(c3ccccc3)C2(Cl)Cl)c(C)c1 (stereo unspecified),-0.22
16,O=C(COc1ccc(Br)cc1CO)Nc1ccc(F)cc1,-0.382
17,Cc1cccc(N2CCN(S(=O)(=O)c3ccc4[nH]c(=O)c(=O)[nH]c4c3)CC2C)c1 (stereo unspecified),0.353
18,Cc1ccc(N2CCN(/N=C/c3sccc3C)CC2)cc1,-0.0713
19,Nc1c(C(=O)NCc2ccccc2)c2nc3ccccc3nc2n1-c1ccc2c(c1)OCO2,-0.118
20,O=C(N/N=C/c1cn(-c2cccs2)nc1-c1ccccc1)c1ccccc1O,1.09
21,C=C(C(=O)c1ccccc1)C(c1ccccc1)C(C)C(=O)c1ccccc1 (stereo unspecified),-0.212
22,Cc1noc(C)c1CSc1ccc(Br)cc1,0.0287
23,Cc1ccc(OCC(=O)Nc2ccc(F)cc2)cc1,-0.224

row,SMILES,z-score
1,Cc1ccc(SCc2nc(-c3cccnc3)no2)cc1,-0.199
2,CN(C)CCNC(=O)Cc1c(C(=O)O)n(C)c2ccccc12,0.0614
3,COc1ccc(-c2cc(C(F)(F)F)c3c(=O)n(-c4ccccc4)[nH]c3n2)cc1,-0.0603
4,CCOCC(=O)NCc1ccc2c(c1)OCO2,-0.437
5,Cc1cc(NC(=O)CSc2nc(-c3ccco3)cc(C(F)(F)F)n2)n(-c2ccccc2)n1,-0.0747
6,O=S(=O)(c1ccccc1)n1ccc2cccnc21,0.511
7,O=C(Cn1nnc(-c2ccc3c(c2)OCO3)n1)N1CCOCC1,0.266
8,CCc1cccc(C)c1NC(=O)C1CN(S(=O)(=O)c2ccccc2)CCN1S(=O)(=O)c1ccccc1 (stereo unspecified),-0.0323
9,O=C(Nc1ccc(-c2nc3cc(Cl)ccc3c(=O)o2)cc1)c1ccco1,-0.405
10,COc1ccc(C2NCCn3cccc32)cc1 (stereo unspecified),-0.113
11,C=CCOC(=O)C1=C(C)NC(SCC)=C(C#N)C1c1ccc(Cl)cc1 (stereo unspecified),0.285
12,COC(=O)NCCOc1nc(N(C)C)nc(N(C)C)n1,-0.0905
13,COc1ccc(Cl)cc1NC(=O)N(C)Cc1c(C)nn(C)c1C,-0.146
14,COc1ccccc1-n1c(SCC(=O)Nc2ccccc2F)nc2[nH]ncc2c1=O,-0.434
15,O=C(Nc1ccc(Br)c2cccnc12)c1ccc(Cn2cc([N+](=O)[O-])cn2)o1,-0.294
16,CC(C)(C)c1ccc(-c2nnc3sc(-c4ccncc4)nn23)cc1,0.522
17,O=S(=O)(c1ccc(-c2csc(-c3cccnc3)n2)cc1)N1CCCCC1,0.0664
18,CCOC(=O)c1c(C)[nH]c(C)c1C(=O)COC(=O)c1cc2ccccc2cc1OC,-0.256
19,Cc1ccccc1C(C(=O)NCc1ccccc1)N(Cc1ccco1)C(=O)c1ccccn1 (stereo unspecified),-0.305
20,Cc1cccc(-[n+]2c(C)cc(C)c3c(=O)[nH]c(=O)[nH]c32)c1,-0.392
21,COc1ccc(-c2cccc(C(=O)NCC(=O)O)c2)cc1,0.504
22,N#Cc1cccc(NC(=O)c2ccccc2C(=O)O)c1,-0.112
23,O=C(CSc1nnc(SCc2ccccc2Cl)s1)N/N=C/c1c[nH]c2ccccc12,-0.0227

row,SMILES,z-score
1,COc1ccc(Cl)cc1N1C(=O)C2CCCN2C1c1cccc(F)c1 (stereo unspecified),-1
2,CC1CCCN(C(=O)c2ccc(S(=O)(=O)N3CCC(c4nc5ccccc5s4)CC3)cc2)C1 (stereo unspecified),-0.412
3,CCN1C/C(=C\c2cccc(C)c2)c2nc3ccccc3c(C(=O)O)c2C1,0.00601
4,Cc1ccc(NC(=O)CSCC(N)=O)cc1C,0.0691
5,Cc1ccc(CNC(=O)/C=C/c2ccccc2Cl)cc1,-0.124
6,CN(C(=O)Nc1ccccc1)C1CCS(=O)(=O)C1 (stereo unspecified),0.91
7,Cn1c2ccccc2n2c(=O)c(Cl)c(-c3ccccc3)c(C#N)c12,-0.222
8,Cc1cc(=O)oc2cc(OC(C)C(=O)O)c(Cl)cc12 (stereo unspecified),0.678
9,Oc1ccc(-c2n[nH]c(=S)n2-c2ccc3c(c2)OCCO3)c(O)c1,-0.645
10,Cc1[nH][nH]c(=O)c1C(c1c(C)[nH][nH]c1=O)c1cn(Cc2ccc(F)cc2)c2ccccc12,-0.769
11,CC1SC(c2ccc(Cl)cc2)NC1=O (stereo unspecified),-0.014
12,CC(=O)N1CCN(c2ccc(NCc3ccc(C(C)C)cc3)cc2)CC1,2.03
13,COc1ccc(CCNC(=O)CCS(=O)(=O)c2ccc3c(c2)CCN3C(C)=O)cc1OC,-0.046
14,CC(C)(c1ccccc1)c1ccc(OCCn2cnc3ccccc3c2=O)cc1,-0.307
15,Cc1occc1C(=O)NNC(=O)Nc1ccc(Cl)c(Cl)c1,-0.135
16,CCC(C)(C)n1nnnc1CN1CCN(c2nc3ccc(C)cc3cc2C#N)CC1,-0.229
17,Cc1cc(C(F)F)n2nc(C(=O)Nc3cc(C)on3)nc2n1,0.927
18,COc1cc(NC(=O)CCn2c(=O)[nH]c3ccsc3c2=O)cc(OC)c1,0.791
19,CC(C)Cn1c(/C=N/Nc2nc3ccccc3[nH]2)nc2ccccc21,0.188
20,CN(CC(=O)N1CC(=O)N(CCc2ccccc2)C(=O)C1)S(=O)(=O)c1cccc2nsnc12,0.446
21,CCOc1ccccc1OCCCC(=O)NC1=NCCS1,-0.897
22,CC(=O)N(Cc1c(C)nn(-c2ccccc2)c1Cl)c1ccc(Cl)cc1,-0.615
23,CCOc1cccc2cc(C(N)=O)c(=NCc3ccccc3)oc12,-0.427

row,SMILES,z-score
1,O=C(O)CCC(=O)Nc1ccc(Sc2ccc([N+](=O)[O-])cc2)cc1,-0.142
2,O=C(CCN1C(=O)COc2ccccc21)NCc1cccnc1,0.317
3,O=C(NC1CCCCCC1)C1c2ccccc2C(=O)N1Cc1ccco1 (stereo unspecified),-0.0522
4,COCCCn1c(C)csc1=Nc1cccnc1,0.069
5,CCOc1cc(N2CCOCC2)c(OCC)cc1NC(=O)CN1C(=O)NC2(CCc3ccccc32)C1=O (stereo unspecified),0.674
6,Cc1cc(OCCCCCNCCO)ccc1Cl,1.03
7,CCOC(=O)C1CCCN(c2c(N3CCN(C4CCCCC4)CC3)c(=O)c2=O)C1 (stereo unspecified),0.872
8,COc1ccc(-n2ncc3c(N4CCC(C(N)=O)CC4)ncnc32)cc1,1.62
9,O=C(Cc1ccc(Br)cc1)OCC(=O)N1CCc2ccccc2C1,-0.569
10,CCOC(=O)c1cc(CC)sc1NC(=O)CCC(=O)O,-0.491
11,CC(C)COn1c(=S)[nH]c2ccccc2c1=O,active: 3.03
12,CN(C)C(=O)CSc1nc2ccccc2n1CC(=O)N1CCN(c2ccccc2)CC1,0.101
13,CCOC(=O)C(C)Sc1ncc(OC)c(Sc2ccc(Cl)cc2)n1 (stereo unspecified),-0.0286
14,Cc1c(NC(=O)/C(C#N)=C\c2cccs2)c(=O)n(-c2ccccc2)n1C,-0.0522
15,COc1ccc2cc(C(c3nnnn3C(C)(C)C)N3CCc4ccccc4C3)c(=O)[nH]c2c1 (stereo unspecified),1.25
16,O=C(CCc1ccccc1)NNC(=S)NC(=O)c1ccccc1,1.13
17,CC(=O)c1nc(N2C(=O)CC(Cc3cccc(C)c3)C2=O)sc1C (stereo unspecified),-0.395
18,O=C(Cn1cnc2c(nnn2-c2ccccc2)c1=O)N1CCOCC1,0.0621
19,COc1ccc(Nc2oc(-c3ccco3)nc2S(=O)(=O)c2ccc(F)cc2)cc1,0.285
